# Laboratory results published in the supplement of paper PMC10681739.
# Whole data set: some 2,700 sequences, median “arbitrary fluorescence units” near 4,100, cut for the highest 2% near 54,000. The list shows a part of the results.
# Biological target: T1, ETS1 (UniProt P14921)
# T1 sequence: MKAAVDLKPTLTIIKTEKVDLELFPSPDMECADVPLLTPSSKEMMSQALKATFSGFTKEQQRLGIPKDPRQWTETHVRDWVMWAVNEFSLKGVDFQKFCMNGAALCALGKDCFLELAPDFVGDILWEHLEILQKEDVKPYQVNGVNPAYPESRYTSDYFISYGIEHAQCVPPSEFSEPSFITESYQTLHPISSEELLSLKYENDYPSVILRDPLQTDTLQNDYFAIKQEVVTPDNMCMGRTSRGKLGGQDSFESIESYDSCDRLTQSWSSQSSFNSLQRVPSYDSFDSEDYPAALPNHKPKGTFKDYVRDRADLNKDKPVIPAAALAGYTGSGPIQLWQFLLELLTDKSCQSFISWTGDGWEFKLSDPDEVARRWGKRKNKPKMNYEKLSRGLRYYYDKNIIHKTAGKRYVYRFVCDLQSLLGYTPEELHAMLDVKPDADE
# Experiment: ETS1 binding intensity (PBM fluorescence) (arbitrary fluorescence units); higher = stronger binding
# Settings: ETS1 concentration 10 nM
# Experimental: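 gcPBM on wild-type 36-bp genomic probes with two neighbouring ETS1 sites (4-24 bp apart). Recombinant human ETS1 (10 nM) was detected with anti-ETS1 antibody fluorescence. Values are medians over 3 replicate spots. The probes sit in constant array flanks that are not printed.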
row,Sequence,ETS1 binding intensity
1,AGAACCGGATTGGGCCGCGGCGGGGACGGAAGCGGC,237
2,CCCTTCAAGGGAAGTCTTAGTACATCCGGTTGACAC,15500
3,AGTCACACAGGAAATGGAGCCAGGGGATGTGCTCAA,14800
4,GTCACTTCCTGACCCTTGCTCAAGAGCATCCGGAGC,26400
5,CTCCGCCCGGAACAGCCGCGGCGCCGGAAGTGGACC,4600
6,TGGGTTCCGCCTTAGCGATCGGTTGGGAGGAAGGCT,706
7,GGATTGCAGGAAGGGCTCAGGCAACTTCCTGTGTTT,6090
8,GATGCCAGGAAGCTGAGAATTGTCAGGATGTTTGTC,1090
9,TCCCCTCTGCCTTCCGCGCCCGGATAAGAATCGAAC,183
10,AGGGGAATCAGACAGGAAGGAAGTGCCATTGTGATA,1790
11,GGGCGACCCCGCAGGAAGTAGGAAGGACGAGCGCGC,1760
12,CCCAAACAGGAAGAAGGGACATAGGGAAATGGCCCT,5770
13,AGAGTTTCCTACATTCTTTACATTCACAGGATATCT,1830
14,TGAGCTTCCTGCCAGAAATGAGATTTGGGAAGTTTG,16700
15,TGCACTCACACTTCCTCCCATTTCCTGTGGGCGGCC,16700
16,TTTCTGGCATTTCCCGTTACAACATCCTGCTCTGCC,10700
17,GACAGTTTCCTCTTTCACACTAGAATATCCTGTTGT,10900
18,ACTGCAGCCTCCTTCCTGTGCTTCCTCACCCGGGCC,6800
19,CCAGGGACTTCCGTTGTCGTCAGCGGAAGCGGTGAC,31700
20,TGGGTGCCCCTTCCTGTGGGTGGGAAATGGGGAGCG,8410
21,AAAGAACGAGGAAATGAATGAAAGGAAGTGCTTTGA,834
22,TGATGATGCTGTTCCGGGGGCATCCTGGCGAGTGAG,417
23,TCGGCCACTTCCGGCGCGCGGGGCGGAAAGCGGGCG,75800
24,AGAGCGCAGTTTCCGGTAGACCCGGAAGCCGATTGC,37700
25,CCCACCCACTTCCGCCTAGCTACCGGAAGTTTCTAT,28800

row,Sequence,ETS1 binding intensity
1,CGTCACACAGGAAGCTGCAGGGCTTTCCTGCGGCAT,3470
2,TTCCCCTTCCTAGGCCGCCCGGGCCACTTCCTGCGG,1180
3,AATCTAATTCCGCCACCGATCTGACAGGAAGCAGAG,451
4,GGCCGCGCTTCCTTCGCTACAAAAAGGAAGCACATC,1760
5,TTAGGAAATGTTGCTTCCTTTCCCACCACCTTCTGT,649
6,TCAGAGAACCTTCCGGCGCCTGTTTCCTGGCAGTGG,4190
7,TTCTGGGTTTCCTGAGCTGCAAAGCATCCTGCTCTC,1990
8,TGAAGCCATCCGGTTGTGGTTATTTGTTCCGGCTGC,15200
9,GCTCCAGGAAAATGACTAATATCAGATTTCCTGTCA,1250
10,ACCTCCAGGAAGCGAGAATGCAGAGTTTCCTCTGTG,816
11,GAGGCCCGGGAAATAGCCGCCGCCGGATGGGCGCTT,350
12,AGGAAAAAACCGGAAGCAAACCGGAAAGAGTGTGCC,17900
13,CCTGGGGAGAGGAAGCGGGGGCAGGAAAAGGCCGAC,898
14,GTGAGCAGGATGCCTGGGTCTCCAGTTCCTGCCAGT,436
15,GCCTGCCATGTATCCGGTGCCTTCCTGGGTGTGCCA,23200
16,AGGGCTCCCTTTCCTGTTATACTTCCTGTGTTACAT,12500
17,CGCCGGGCCGGAAGCCGGCGCCGGGAAGCGCGTGTG,11200
18,CTAAAGCTTCCTCCTTTTCACAAGCTTCCTGTTTCT,3590
19,AAGAAAGGCAGGAAGCATAAACAGGAAGTTAGTGGA,6810
20,TTTGGCTGGTATTTCCTTGCGGATGATCTTCCCAAA,414
21,GCCACTTCCCGCAGCACCAGCGGCTCCTTCCGGTCC,16600
22,CCACAGGCAGGATGCAGCATAGGAGGATGTGGGCAT,3090
23,AGCGGCGGAACCTGCCCGCCGGTGTCTTCCTGCCCA,284
24,ACAAAGGCAGGAAGGGGTTTGTAGGAAGTGTTCTGT,1210
25,AATAAACAGGAAAAGTCAGCATGCAGGAAGATTACA,350

row,Sequence,ETS1 binding intensity
1,GAGAAAGGAAATATGCATATGCTCCAGGATGTCTGT,589
2,GGTTTAGGCTTCCGCCCCCAGCCCGGAACCTTTCTT,8110
3,GCAAATGCTTCCTATCTATGAGACAGGAAATGCTCT,6150
4,GAGGACAGAGCTTCCTGTGTCAGGAAGACAGGGGAG,15200
5,TTCTTGACTTCCTTAACCTTGCAGAGGAAGTCTGTT,3300
6,AAGGCGGAGAGGAAGCGGTAGAAGGAAGCTTTCTCT,662
7,CCTCAGGAAACAGGTGCTCCTGGAATGTTTCCTGCC,846
8,GGGCAGGCAGCCGGATTCACCGGAAAGTGACGCTTC,388
9,TCTTTGCCATTTCCCCATTGGCCGGATGGGGCTACC,960
10,GAGCAGGAAGGCCCTGGACCTGGCCCAGGAAACCAT,176
11,CAAACACATCCTGTTTGCACTTGACTTCCTGTTTTG,37400
12,CACAACAGCTGTTTCCTAGCCTTCCTGTGACCACAG,420
13,TCCGGTCGACGGCGGAAGGCGGAAGGCGGAGCGGTC,335
14,AAAGATGTTTCCTATATAGCAACAGGAAATCTCACT,1520
15,TAGAGGAGCTGTTTCCTGCCGGAACTAATTATCTCG,10900
16,CACTGCTTCCGGGCCAGGACAAGCGCTTCCGGTCCC,24400
17,CGACAGGATGACGCCTCCGTCTTTGTGCTTCCTGGG,868
18,AGAGAAAGGGGCCGGAAACGGAAGTGCGCGCCGAGG,12000
19,CTGCCCATCCTGCTCCTAGCAGCCACAGGAAGCTCT,1580
20,TAGCGCTCAGGAAGTACGACACCGGAAGGGGTGGGC,3110
21,TATAAAACCATTTCCTTCTCTGGGAAATGAGATGTC,3370
22,CTCTGCACTTCCTCTGTGGGTTTACATCCTGTGGGC,13000
23,TACTGTTTTCTTCCTGAGTCATATCCTCTCATTATG,739
24,GAAGGTTGACAGACTTCCTTCCGCACTTGGGTTTTT,3050
25,GACCACGCATTTCCTGCGCCCCCGGAAGTGGTGATA,23600

row,Sequence,ETS1 binding intensity
1,GCGGCTGCGGGGGAAGTAGGGGGGAAGTGGGCGGGC,1100
2,CCTACCCAGGAAGCCGCGGAGGGCCGGATATCACCG,1640
3,CCCGGTAGCCGCCGGAAAACTTCCGCCGAGACCGGA,4420
4,AGAAGGGGAAATGACTGGTAGAGAGAGGAAGCCCGT,286
5,GACCGCAGGAAGGGACGCGGCCGCACTTCCGGCGAC,8620
6,TAGATGAAAGGATGTCACAGGCAGGAAAATGCCTTG,193
7,TGTGCGGAAGAAGCGGCCCATGCTCTCGGAAGACGC,181
8,CCATTCATTTCCTGCCTCCCCGAGTTCCGGCTGCGG,35800
9,TCCCTGACTTCCTGTTCTCCTCACATCCTGTCACTA,29900
10,GCTGCACAGCAGGAAGTGAGCAGGAAGTGAACTGGG,10200
11,ACCACCCTGACCACTTCCTTCCTGACCAGGCCAGGA,3340
12,CGTCCACTGGAGGCTTCCTTCCGGCGCCCGCGTGCC,3590
13,CTGGGCCGGAAATGCCTAATCTGAACTTCCGCCCTG,20200
14,GAGGCTTCTCGGATGTGCAGACAGGAAGCACTGGCC,1470
15,AAAACTGTATCCGGGGGACGCCGTTTCCCTGCAGGG,8980
16,TGTGCTCACAGGAAGTGGCAGCATCCGGCCTCCCAT,15500
17,AGGGACAACCCGGAAACCACATTTCCCAGCGTGCCG,4050
18,AGTGCACTTCCTGGTGCTACCTTCATTTCCTGCCCT,19000
19,GATCAGTTTCCGGCTGTGGACTACATTTCCCAGAAG,25800
20,GAGAAAGGCTCTTTTCCTGCTTCCTGCTGTGTTTGC,7060
21,TACCTGTGGGATGTTGGAATGAACAGGAAATGCTAG,629
22,TCTATGGTTTCCGGAGGCCTCACCGGAAGCCCTCGT,14100
23,TCACCCGGGATGTTTACCTCAGCCCATCCTGCCTGG,244
24,AAAGGCGGCAGGATGGAGGGGAGGATGTCGCTTCAG,359
25,AGAAGCACACAAGGAAGTGTTTCCGGGACAGAGGGT,9030

row,Sequence,ETS1 binding intensity
1,GGAAGGGAGAGGGCGGAACTTCCGGCTGAGCCCCAG,21300
2,GAACTGAGAGCGGAAATTACAGGAAGGCCTATTGTG,8570
3,AGAAAGGAAGTCATTGAGTTCATTCCAGGAAGCACA,1350
4,TTACAAACAGCCTTCCGTCTCTTCCTGGTCAAGTCC,345
5,GGGCCTCGATTTCCGGGCGCGCTTCCGGGCCCCGGC,22700
6,ATGCCGTCGTTTCCGGGGCTGCTTCCGAGCCGGACC,16000
7,CAGACAGGAAGCACTGGCCAGGACTGCGGATGTGAA,7680
8,AGATCTAGAGGAAGTCTTGGCCAGGAAGACAACAAT,562
9,ACCAGTAGATGCGGATGCAGTTTCCGGACGAGTCAT,2840
10,GCCCGCTGTGGCGGATGAAAGGAAGCCGTCGGCGTG,179
11,CGCGCCGGGTGTTTCCGCTACTTCCCTGCGGCGGGG,7930
12,ACGGCAAGGGAAGTGCAGATGGGCAGGAAGTCCCTC,989
13,CCAGCAGCTTCCTTGGGAAGATAGAGGATGTTGTGA,807
14,CACAGAAAAAGGAAGTTAGTGCATCCTGGAGCATAT,2350
15,TGCTTGGGCCCCACTTCCTTCCTGCACCCCCGGGGT,4480
16,AGGCGAAGCTTCCTAGAGCGGCCCGGAAGTGCCCGG,2040
17,TGGAGTGTCATTTCCTCTACAGGATGTGTCCCTGTG,12800
18,GCAGCACAAAGGAAGTTACCTCTTTCCGTTCTGGCC,2430
19,GTATGGGATGTGGGCGGCCAGGACAAGATCCGGCCG,250
20,CCAGCAGGAAGTGGCCCACCTGCAACAGGAATGCAG,9950
21,GCAGGATGCAGTGTGGAAGGATGTACAGAGGGTGGC,308
22,TGAAGACTACATTTCCCAACATCCTTTACAGTTGGG,536
23,CGCTTCCTTTCAATCCCCACATCCTCACCACCTGTT,11900
24,TCAGGAGGGCCATTTCCCTTTTCCTGCCCAGATGCT,3000
25,GAGTTTAGCAGGAAGAGAAAACAGGAATAGTGACTC,389
